Residue numbers refer to the chain shown, from its start. This is one part of the list.
T1: RBFOX1 RRM (Homo sapiens, UniProt Q9NWB1 109-208)
T1 sequence: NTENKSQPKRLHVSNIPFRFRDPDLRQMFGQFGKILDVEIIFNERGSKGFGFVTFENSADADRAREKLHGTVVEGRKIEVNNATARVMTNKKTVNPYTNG

B1: GCCUCUC (DNA:RNA)
RNA: GGGAGACCGGAAUUCAGAUUGUCCGCCUCUCUUAAAUCCCGUCGUAGCCACCA
DNA 1: CAATCTGAATTCCGGTCTCCC
DNA 2: TGGTGGCTACGACGGGATT
B2: GUCAAGC (DNA:RNA)
RNA: B1 RNA with C26U, U28A, C29A, U30G
DNA 1: CAATCTGAATTCCGGTCTCCC
DNA 2: TGGTGGCTACGACGGGATT
B3: CCCACUG (DNA:RNA)
RNA: B1 RNA with G25C, U28A, C31G
DNA 1: CAATCTGAATTCCGGTCTCCC
DNA 2: TGGTGGCTACGACGGGATT
B4: GAAGAUG (DNA:RNA)
RNA: B1 RNA with C26A, C27A, U28G, C29A, C31G
DNA 1: CAATCTGAATTCCGGTCTCCC
DNA 2: TGGTGGCTACGACGGGATT
B5: UUUUCAA (DNA:RNA)
RNA: B1 RNA with G25U, C26U, C27U, U30A, C31A
DNA 1: CAATCTGAATTCCGGTCTCCC
DNA 2: TGGTGGCTACGACGGGATT
B6: GCGCAAU (DNA:RNA)
RNA: B1 RNA with C27G, U28C, C29A, U30A, C31U
DNA 1: CAATCTGAATTCCGGTCTCCC
DNA 2: TGGTGGCTACGACGGGATT
B7: UGAGAGU (DNA:RNA)
RNA: GGGAGACCGGAAUUCAGAUUGUCCUGAGAGUUUAAAUCCCGUCGUAGCCACCA
DNA 1: CAATCTGAATTCCGGTCTCCC
DNA 2: TGGTGGCTACGACGGGATT
B8: UAUGGCC (DNA:RNA)
RNA: B7 RNA with G26A, A27U, A29G, G30C, U31C
DNA 1: CAATCTGAATTCCGGTCTCCC
DNA 2: TGGTGGCTACGACGGGATT
B9: UCUGGCG (DNA:RNA)
RNA: B7 RNA with G26C, A27U, A29G, G30C, U31G
DNA 1: CAATCTGAATTCCGGTCTCCC
DNA 2: TGGTGGCTACGACGGGATT
B10: AGAGGGC (DNA:RNA)
RNA: B7 RNA with U25A, A29G, U31C
DNA 1: CAATCTGAATTCCGGTCTCCC
DNA 2: TGGTGGCTACGACGGGATT
B11: CUUGCGG (DNA:RNA)
RNA: B7 RNA with U25C, G26U, A27U, A29C, U31G
DNA 1: CAATCTGAATTCCGGTCTCCC
DNA 2: TGGTGGCTACGACGGGATT
B12: AAGGAAU (DNA:RNA)
RNA: B7 RNA with U25A, G26A, A27G, G30A
DNA 1: CAATCTGAATTCCGGTCTCCC
DNA 2: TGGTGGCTACGACGGGATT
B13: GUAAUGC (DNA:RNA)
RNA: B1 RNA with C26U, C27A, U28A, C29U, U30G
DNA 1: CAATCTGAATTCCGGTCTCCC
DNA 2: TGGTGGCTACGACGGGATT
B14: CAAGGAC (DNA:RNA)
RNA: B7 RNA with U25C, G26A, A29G, G30A, U31C
DNA 1: CAATCTGAATTCCGGTCTCCC
DNA 2: TGGTGGCTACGACGGGATT
B15: CGUCUUA (DNA:RNA)
RNA: B1 RNA with G25C, C26G, C27U, U28C, C29U, C31A
DNA 1: CAATCTGAATTCCGGTCTCCC
DNA 2: TGGTGGCTACGACGGGATT
B16: GUCGUCA (DNA:RNA)
RNA: B1 RNA with C26U, U28G, C29U, U30C, C31A
DNA 1: CAATCTGAATTCCGGTCTCCC
DNA 2: TGGTGGCTACGACGGGATT
B17: CUCAGAC (DNA:RNA)
RNA: B1 RNA with G25C, C26U, U28A, C29G, U30A
DNA 1: CAATCTGAATTCCGGTCTCCC
DNA 2: TGGTGGCTACGACGGGATT
B18: UAGUACU (DNA:RNA)
RNA: B7 RNA with G26A, A27G, G28U, G30C
DNA 1: CAATCTGAATTCCGGTCTCCC
DNA 2: TGGTGGCTACGACGGGATT
B19: UCCUGGG (DNA:RNA)
RNA: B1 RNA with G25U, C29G, U30G, C31G
DNA 1: CAATCTGAATTCCGGTCTCCC
DNA 2: TGGTGGCTACGACGGGATT
B20: UCACAUU (DNA:RNA)
RNA: B7 RNA with G26C, G28C, G30U
DNA 1: CAATCTGAATTCCGGTCTCCC
DNA 2: TGGTGGCTACGACGGGATT
B21: CCACAGA (DNA:RNA)
RNA: B7 RNA with U25C, G26C, G28C, U31A
DNA 1: CAATCTGAATTCCGGTCTCCC
DNA 2: TGGTGGCTACGACGGGATT
B22: UCAUGAC (DNA:RNA)
RNA: B1 RNA with G25U, C27A, C29G, U30A
DNA 1: CAATCTGAATTCCGGTCTCCC
DNA 2: TGGTGGCTACGACGGGATT
B23: GGGGAAG (DNA:RNA)
RNA: B7 RNA with U25G, A27G, G30A, U31G
DNA 1: CAATCTGAATTCCGGTCTCCC
DNA 2: TGGTGGCTACGACGGGATT
B24: GUCAUGA (DNA:RNA)
RNA: B1 RNA with C26U, U28A, C29U, U30G, C31A
DNA 1: CAATCTGAATTCCGGTCTCCC
DNA 2: TGGTGGCTACGACGGGATT
B25: AUCGACG (DNA:RNA)
RNA: B7 RNA with U25A, G26U, A27C, G30C, U31G
DNA 1: CAATCTGAATTCCGGTCTCCC
DNA 2: TGGTGGCTACGACGGGATT
B26: UUACCGC (DNA:RNA)
RNA: B7 RNA with G26U, G28C, A29C, U31C
DNA 1: CAATCTGAATTCCGGTCTCCC
DNA 2: TGGTGGCTACGACGGGATT
B27: GAGAGAC (DNA:RNA)
RNA: B1 RNA with C26A, C27G, U28A, C29G, U30A
DNA 1: CAATCTGAATTCCGGTCTCCC
DNA 2: TGGTGGCTACGACGGGATT
B28: GCCGUAA (DNA:RNA)
RNA: B1 RNA with U28G, C29U, U30A, C31A
DNA 1: CAATCTGAATTCCGGTCTCCC
DNA 2: TGGTGGCTACGACGGGATT
B29: UCCCUUA (DNA:RNA)
RNA: B1 RNA with G25U, U28C, C29U, C31A
DNA 1: CAATCTGAATTCCGGTCTCCC
DNA 2: TGGTGGCTACGACGGGATT
B30: CGCCUGC (DNA:RNA)
RNA: B1 RNA with G25C, C26G, U28C, C29U, U30G
DNA 1: CAATCTGAATTCCGGTCTCCC
DNA 2: TGGTGGCTACGACGGGATT
B31: GAAACGU (DNA:RNA)
RNA: B7 RNA with U25G, G26A, G28A, A29C
DNA 1: CAATCTGAATTCCGGTCTCCC
DNA 2: TGGTGGCTACGACGGGATT

Target: T1, RBFOX1 RRM
Assay: EMSA; HiTS-Eq, 1 nM pool, 10 min; buffer printed only for the single-RNA assays: 10 mM Tris pH 7.5, 150 mM NaCl, 3.4 mM EDTA, 0.001% NP-40, 30 C
Conditions: tags: His6 N-terminal (pET28a); label: 5' 32P
Procedure, shortened: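 A pool of RNA with 7 randomized nucleotides, 5′-radiolabelled and with DNA-annealed flanks, was equilibrated at 1 nM for 10 min in 50 µL with purified RbFox RRM, wild type or mutant, across increasing protein concentrations. Free RNA was separated by 8% native PAGE, excised, reverse-transcribed, barcoded by PCR and sequenced. Relative association constants were obtained from read-count changes of each RNA species versus the control reaction and normalised to the cognate motif.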

Point of comparison: B17, binding signal 0.0105 KA relative to UGCAUGU. Against it:
- B1 — higher, 0.0137 KA relative to UGCAUGU
- B2 — lower, 0.00758 KA relative to UGCAUGU
- B3 — lower, 0.00327 KA relative to UGCAUGU
- B4 — higher, 0.0151 KA relative to UGCAUGU
- B5 — higher, 0.0108 KA relative to UGCAUGU
- B6 — higher, 0.012 KA relative to UGCAUGU
- B7 — higher, 0.0213 KA relative to UGCAUGU
- B8 — higher, 0.0165 KA relative to UGCAUGU
- B9 — higher, 0.0207 KA relative to UGCAUGU
- B10 — lower, 0.00728 KA relative to UGCAUGU
- B11 — lower, 0.0071 KA relative to UGCAUGU
- B12 — lower, 0.00527 KA relative to UGCAUGU
- B13 — higher, 0.0131 KA relative to UGCAUGU
- B14 — lower, 0.00302 KA relative to UGCAUGU
- B15 — lower, 0.00618 KA relative to UGCAUGU
- B16 — higher, 0.0114 KA relative to UGCAUGU
- B18 — lower, 0.0082 KA relative to UGCAUGU
- B19 — lower, 0.00619 KA relative to UGCAUGU
- B20 — lower, 0.00269 KA relative to UGCAUGU
- B21 — lower, 0.00978 KA relative to UGCAUGU
- B22 — lower, 0.00702 KA relative to UGCAUGU
- B23 — higher, 0.0311 KA relative to UGCAUGU
- B24 — higher, 0.0126 KA relative to UGCAUGU
- B25 — lower, 0.00839 KA relative to UGCAUGU
- B26 — lower, 0.00979 KA relative to UGCAUGU
- B27 — lower, 0.00496 KA relative to UGCAUGU
- B28 — lower, 0.00669 KA relative to UGCAUGU
- B29 — lower, 0.00553 KA relative to UGCAUGU
- B30 — higher, 0.0343 KA relative to UGCAUGU
- B31 — lower, 0.00867 KA relative to UGCAUGU

From PMC9911399, “Two distinct binding modes provide the RNA-binding protein RbFox with extraordinary sequence specificity”
